Several values for one entry are separate records, joined by “and”; a condition that tells them apart may be missing. Identical values can stand only once. About 6,200 (6.6%) of roughly 94,000 compounds were called active. Inconclusive means that the source gave no clear call. Such entries were picked first, then a sample of the others. Calls come from the whole dose curve; as a rule, active = well fitted inhibition curve with a large enough effect; inconclusive = small, poorly fitted or top-dose-only effect; inactive = flat fitted curve, though single readings scatter. Where the call is inconclusive, the potency comes from a doubtful curve fit.
assay: Cytotoxic Profiling in HEK 293 Cell Line of Diverse Libraries Using Quantitative High-Throughput Screening; conditions: HEK 293 viability, ATP luminescence (CellTiter-Glo), 48-72 h; series mostly up to 115 µM; note: nearly all actives have a fitted effect of over 60% in size
Summary of the method: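 Cells seeded first (HEK 293, 250 cells/well), then compound added by pintool. Incubation ran 48 or 72 hr at 37 degree Celsius. CellTiter-Glo was added and luminescence imaged after 10 min at room temperature.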
Potency is the fitted concentration of half-maximal effect; tags give direction and shape of the fitted curve.

Structure (SMILES)	Potency
CC(C)c1nnsc1CN1CCCn2nc(C(O)C3CCC3)cc2C1 (stereo unspecified)	inconclusive: 28.2 µM [inhibitor, full curve, poor fit]
O=C(Nc1nc2c(s1)CCC2)C1CC(=O)N(c2n[nH]c3cc(Br)ccc23)C1 (stereo unspecified)	inconclusive: 44.7 µM [inhibitor, partial curve, poor fit]
COc1ccc(OCc2cc(C(=O)NC(CO)C(C)C)no2)c2ccccc12 (stereo unspecified)	inconclusive: 22.4 µM [inhibitor, full curve, poor fit]
CN(CCc1noc(C2CN(S(=O)(=O)c3ccccc3)C2)n1)C(=O)c1ccncc1	inactive
Cc1ccccc1C(=O)NC1CCN(Cc2cccc(-c3ccc(F)c(F)c3)c2)CC1	active: 50.1 µM
COCC1CN(C(C)=O)CC12CCN(Cc1ccc(F)c(F)c1)CC2 (stereo unspecified)	inconclusive: 89.1 µM [inhibitor, single point]
CNC(=O)[C@H]1C[C@H](Oc2cccnc2)CN1C(=O)Nc1ccccc1	inactive
COc1cc(OC)cc(C(=O)N2CCC3(CC2)NC(=O)N(c2cccc(F)c2)N3)c1	inconclusive: 44.7 µM [inhibitor, partial curve, poor fit]
COc1cccc(-c2ccccc2NC(=O)C2CCN(Cc3ccc(F)cc3)CC2)c1	active: 31.6 µM
COc1ccc(C(=O)N2CCCC(c3nc(CCOCC4CCCC4)no3)C2)cc1F (stereo unspecified)	active: 44.7 µM
COc1ccccc1Cn1c(-c2ccccc2)nc(C)c(CCO)c1=O	inconclusive: 89.1 µM [inhibitor, single point]
O=[S+]([O-])(NC1CCN(c2ccc3nnc(C4CC4)n3n2)C1)c1ccccc1 (stereo unspecified)	inconclusive: 89.1 µM [inhibitor, single point]
CNC(=O)c1cc(C2CC2)nc2onc(C3CCCN(C(=O)c4ccccc4)C3)c12 (stereo unspecified)	inactive
COC1CCOC2(CCN(C(=O)c3cc(-c4ccc(F)cc4)n[nH]3)CC2)C1 (stereo unspecified)	inactive
CC(C)NC(=O)N1CC(C(=O)NCc2ccc3c(c2)OCO3)CC(c2ccccc2)C1 (stereo unspecified)	inactive
COc1ccc(S(=O)(=O)N2CCC(n3cnnc3-c3ccccc3)CC2)cc1Cl	inconclusive: 50.1 µM [inhibitor, partial curve, poor fit]
COCCN(C)C(=O)c1nc2nc(-c3ccccc3)c(Cl)cc2n1C	inconclusive: 112 µM [inhibitor, partial curve, poor fit]
COc1ccc(C2Cn3nnc(C(=O)N4CCN(C(=O)c5ccccc5)CC4)c3CO2)cc1 (stereo unspecified)	inconclusive: 39.8 µM [inhibitor, full curve, poor fit]
O=C(NC1CCN(Cc2ccc(F)c(F)c2)CC1)c1ccc2nccn2c1	active: 44.7 µM
Cn1c(CCC(=O)N2CC[C@H](CO)[C@H](O)C2)nc2cccnc21	inconclusive: 44.7 µM [inhibitor, partial curve, poor fit]
COCCNC(=O)c1cc(-c2ccc(Cl)cc2)nc2c1cnn2C	inconclusive: 50.1 µM [inhibitor, partial curve, poor fit]

Structure (SMILES)	Potency
Cc1cc(-n2cccn2)ccc1CN(C)CC(C)N1CCOCC1 (stereo unspecified)	inactive
CCCNC(=O)[C@@H]1Cc2cn(Cc3nccn3C)c3cccc(c23)[C@H](CC(C)C)N1	active: 44.7 µM
O=C1NC2(CCCN(Cc3ccc(C(F)(F)F)cc3)C2)COc2ccccc21 (stereo unspecified)	inconclusive: 89.1 µM [inhibitor, single point] and inconclusive: 35.5 µM [inhibitor, partial curve, poor fit]
O=C(Nc1cccnc1)c1nc2c(o1)CCN(Cc1ccc(F)c(F)c1)CC2	inconclusive: 56.2 µM [inhibitor, partial curve, poor fit]
Cc1ccc(CN2CC[C@H](c3nc4ccc(C)cc4[nH]3)C2)cc1	inconclusive: 112 µM [inhibitor, partial curve, poor fit]
COCCN1Cc2[nH]nc(-c3cccc(NC(C)=O)c3)c2CC1=O	inactive
O=C1c2c(nc(COc3cccc(C(F)(F)F)c3)n2Cc2ccccc2)NCCN1CC1CC1	active: 50.1 µM
CCc1noc(-c2cn(C3CCN(C(=O)C(C)c4ccccc4)CC3)nn2)n1 (stereo unspecified)	inactive
Cc1cc(S(=O)(=O)N2CCC(n3cnnc3C(C)C)CC2)ccc1F	inactive
O=[S+]([O-])(NC1CCCN(c2ccnc3ccnn23)C1)c1cccc(C(F)(F)F)c1 (stereo unspecified)	inconclusive: 44.7 µM [inhibitor, partial curve]
COc1cccc(NC(=O)c2cnc3c(c2)N(C(=O)Cc2ccccc2OC)CCC3)c1	active: 100 µM
CN(CCCN1CCOCC1)Cc1nc(-c2cccs2)no1	inactive
Cc1ccc(C(=O)N2CCC3(CC2)NC(=O)N(c2ccccc2)N3)cc1	inconclusive: 31.6 µM [inhibitor, full curve]
CCOc1ccc(C(=O)NC2CCCN(c3cc(-c4ccc(OC)cc4)[nH]n3)C2)cc1 (stereo unspecified)	inconclusive: 22.4 µM [inhibitor, full curve]
O=C(c1ccc(Cl)nc1)N1CCCC(c2nn(-c3ccc(Cl)cc3)c(=O)[nH]2)C1 (stereo unspecified)	inconclusive: 100 µM [inhibitor, single point]
O=C(NC1CCCN(c2cc(-c3ccc(Cl)cc3)[nH]n2)C1)c1ccccc1F (stereo unspecified)	active: 44.7 µM
Cc1onc(-c2cnn(C)c2NCCc2ccccc2)c1C(=O)N1CCC(c2ccccc2)CC1	inconclusive: 50.1 µM [inhibitor, partial curve, poor fit]
Cc1nn(-c2ccccc2)c2c1C(C)N(CC1CN(C(=O)c3cccc(Cl)c3)C1)C2=O (stereo unspecified)	inconclusive: 50.1 µM [inhibitor, partial curve, poor fit]
COc1ccc(-c2nc(C)nc3c2CCN([S+](=O)([O-])c2cccc(C(F)(F)F)c2)CC3)cc1	inconclusive: 79.4 µM [inhibitor, partial curve, poor fit]
COc1cc(CNCCOc2ccccc2)ccc1OCC(O)CN1CCOCC1 (stereo unspecified)	inconclusive: 89.1 µM [inhibitor, single point]

From PubChem BioAssay AID1345083 (National Center for Advancing Translational Sciences (NCATS), 2018)
